# Source: PubChem BioAssay AID463173 (ICCB-Longwood Screening Facility, Harvard Medical School, 2010)
# In all, about 52,000 compounds went through this assay and about 4,300 (8.3%) were called active. Rule as the data show it: active = survival mostly below about 52% (no sharp cut-off); inactive = mostly above about 56%. This is one part of the list.
# System: DeltatarO mutant
# Test: growth inhibition of S. aureus wild type versus tarO mutant, primary screen, teichoic acid synthesis inhibitors, RN4220, OD600 (AID 463173)
# Conditions: OD600, 18 h, active compounds read low, screened at 18.75 µg/mL (by protocol)
row,Structure (SMILES),survival
1,Cc1nn(-c2ccccc2)c2[nH]c(=O)c(CNc3ccccc3)cc12,inactive: 83%
2,COc1cc(NC(=O)CCn2nc(C)cc2C)cc(OC)c1OC,inactive: 78%
3,CCCn1c(=O)sc2cc(NC(=O)c3ccccc3Cl)ccc21,inactive: 61%
4,Cc1ccc(-c2noc(CNC(C)C)n2)cc1,inactive: 77%
5,COc1ccc(-c2cc(C(=O)Nc3ccc4c(c3)OCO4)no2)cc1,inactive: 50%
6,CCC1CCCCN1CCCNC(=O)c1cn(C)c2ccc(S(=O)(=O)N(C)C3CCCCC3)cc2c1=O (stereo not given),inactive: 90%
7,COc1cccc(N2CCN(C(=O)c3cccn3-c3nnc(N4CCCCC4)s3)CC2)c1,inactive: 107%
8,COc1cccc(NC(=O)c2oc3ccc(S(=O)(=O)N(C)C4CCCCC4)cc3c2C)c1,inactive: 90%
9,CC(C)(C)OC(=O)N1CCC(c2c(C(=O)N3CCCCC3)cnn2-c2ccc(F)cc2)CC1,inactive: 93%
10,Cc1ccc(C)c(NC(=O)CSc2nc3ccccc3nc2N2CCOCC2)c1,inactive: 85%
11,CCSc1ccccc1C(=O)N1CCN(c2nc3ccccc3s2)CC1,inactive: 92%
12,CCc1nn(CC(=O)NCCc2ccc(Cl)cc2)c(=O)c2cc3c(OC)cccc3n12,inactive: 75%
13,COc1ccccc1C(=O)Nc1cccc(OCc2cc(=O)n3ccccc3n2)c1,inactive: 94%
14,COC(=O)c1ccc(NC(=O)c2cnn(-c3ccc(Cl)cc3)c2C2CCN(C(=O)OC(C)(C)C)CC2)cc1,inactive: 86%
15,Cc1cc(C)c(NC(=O)c2cc(C)nc3c2c(C)nn3-c2cccc(F)c2)c(C)c1,inactive: 94%
16,CCc1ccc(-c2nn(-c3ccc(OC)cc3)c3c2cnc2ccc(OC)cc23)cc1,active: 14%
17,CCN(CC)C(=O)c1c(NC(=O)c2ccccc2F)sc2c1CCC(C(C)(C)C)C2 (stereo not given),active: -8%
18,CCn1c(O)c(C=Nc2cccc(O)c2)sc1=S,inactive: 82%
19,COc1cc(OC)cc(C(=O)Nc2nc(-c3nnn(-c4ccc(C)cc4)c3C)ns2)c1,inactive: 118%
20,CCOC(=O)C1=C(CN2CCC(C)CC2)NC(=O)NC1c1ccc(OC(C)C)cc1 (stereo not given),inactive: 80%
21,COc1cc(/C=C(/C#N)c2nc(-c3cc4ccccc4oc3=O)cs2)ccc1O,inactive: 104%
22,Cc1c(Cl)cccc1NC(=O)Nc1c[nH]c(=O)[nH]c1=O,inactive: 90%
23,Cc1cccc(NC(=O)CSc2nc3c([nH]c4ccccc43)c(=O)n2-c2cc(C)cc(C)c2)c1,inactive: 94%

row,Structure (SMILES),survival
1,COc1cccc(C=Nc2cccc3c(=O)[nH][nH]c(=O)c23)c1O,inactive: 56%
2,CC1CCCCN1C(=O)CSc1nc(-c2ccccc2)no1 (stereo not given),inactive: 83%
3,CCc1ccc2occ(CC(=O)N(Cc3ccccc3)C3CCS(=O)(=O)C3)c2c1 (stereo not given),inactive: 74%
4,Cc1nc2ccccc2n1C1CCN(C(=O)NC2CCCCC2)CC1,inactive: 87%
5,Cc1ccc(NC(=O)CN2C(=O)C(c3ccccc3)=NC23CCCCC3)cc1C,inactive: 75%
6,CCS(=O)(=O)N1CCCc2cc(C(=O)Nc3cc([N+](=O)[O-])ccc3C)ccc21,active: 42%
7,COc1ccc(-n2c(C)nc3c(cnn3-c3ccc(C)c(C)c3)c2=O)cc1Cl,inactive: 118%
8,COc1cccc(CNC(=O)Cn2c(=O)ccc3cc(S(=O)(=O)N4CCCC4)ccc32)c1,inactive: 98%
9,CCc1ccc(S(=O)(=O)c2nnn3c2nc(N(C)Cc2ccccc2)c2cc(Cl)ccc23)cc1,inactive: 82%
10,COc1ccc(Nc2nc3c(S(=O)(=O)c4ccccc4)nnn3c3ccc(Cl)cc23)cc1,inactive: 95%
11,CCN(CC)CCCNC(=O)c1cn(CC)c2ccc(S(=O)(=O)N3CCC(C)CC3)cc2c1=O,inactive: 105%
12,Cc1cc(=O)n(CC(=O)N2CCCCC2)c2c1c(C)nn2C,inactive: 75%
13,O=C(Cc1ccccc1)NC1CCS(=O)(=O)C1 (stereo not given),inactive: 97%
14,CC(OC(=O)c1ccco1)C(=O)NC1CCCC1 (stereo not given),inactive: 107%
15,CCOC(=O)c1ccccc1NC(=O)CSc1nc(=O)[nH]c2c1CCCC2,inactive: 77%
16,COc1ccc(NC(=O)c2ccco2)cc1NC(=O)c1cc2ccccc2o1,inactive: 95%
17,COc1ccc(Br)cc1CNC(=O)Cn1nc(C)n2c(cc3cc(F)ccc32)c1=O,inactive: 67%
18,Cc1ccccc1CNC(=O)Cn1nc(C)c2nn(-c3ccc(Cl)cc3)c(C)c2c1=O,active: 37%
19,CCOC(=O)c1sc2ccccc2c1S(=O)(=O)Nc1cc(OC)ccc1OC,inactive: 94%
20,Cc1ccc(C)c(N2CCN(S(=O)(=O)c3ccc4[nH]c5c(c4c3)CCCC5)CC2)c1,active: -2%
21,COc1ccc(CNCc2c(C(=O)O)c(C)n(Cc3ccccc3C)c2C)cc1OC,inactive: 91%
22,COc1ccc(N2CCN(c3ncccc3-c3nc(-c4ccccc4C)no3)CC2)cc1,inactive: 56%
23,CCOc1ccc(C2C(=O)N(C3CCCCC3)CC(=O)N2Cc2ccc(F)cc2)cc1OC (stereo not given),inactive: 61%

row,Structure (SMILES),survival
1,Cc1cccc(CNC(=O)c2ccc3c(c2)N(C)CCS3)c1,inactive: 65%
2,Cc1cc(C)c(NC(=O)CSc2nc3ccccc3c3nc(-c4ccccc4)nn23)c(C)c1,inactive: 70%
3,CCc1ccc(C(c2ccccc2)c2c(C)[nH]c3ccccc23)s1 (stereo not given),active: 25%
4,CCCC(C)NS(=O)(=O)c1ccccc1 (stereo not given),inactive: 67%
5,COc1ccc(NC(=O)Cn2c(=O)n(CCCC(=O)NCc3ccccc3Cl)c(=O)c3ccccc32)c(OC)c1,inactive: 125%
6,Cc1ccc2c(=O)c(C(=O)c3ccccc3)cn(CC(=O)NCc3ccccc3)c2n1,inactive: 69%
7,Cc1ccc(CNc2nc(-c3ccco3)nn2C(=O)c2ccccc2[N+](=O)[O-])cc1,inactive: 111%
8,O=C(O)CC(NS(=O)(=O)c1cccc2nsnc12)C(=O)O (stereo not given),inactive: 107%
9,CCS(=O)(=O)Nc1ccc2[nH]c(=O)[nH]c2c1,inactive: 88%
10,O=C(CSc1nnc(COc2cccc3cccnc23)o1)N1c2ccccc2CCc2ccccc21,inactive: 77%
11,COc1ccc(CNS(=O)(=O)c2ccc(C(=O)N(C)C)s2)cc1,inactive: 66%
12,N#Cc1nc(-c2ccc(COc3ccc(Cl)cc3)o2)oc1N1CCCCC1,inactive: 49%
13,CCOC(=O)c1scc(-c2ccccc2)c1S(=O)(=O)Nc1ccccc1OC,inactive: 92%
14,COc1ccccc1N1CCN(c2nc3c(S(=O)(=O)c4ccccc4)nnn3c3ccc(Cl)cc23)CC1,inactive: 111%
15,Fc1ccc(N2CCN(Cc3nnc(-c4ccccc4Cl)o3)CC2)cc1,inactive: 73%
16,O=C1c2[nH]nc(-c3ccccc3O)c2C(c2cccc(OCc3ccccc3)c2)N1CCCO (stereo not given),active: 56%
17,CCc1cccc(C)c1Nc1c(-c2ccc(F)cc2)nc2sccn12,inactive: 35%
18,COc1ccc(Cn2c(SCc3ccc(C(=O)NC4CCCCC4)cc3)nc3ccncc32)cc1,inactive: 87%
19,CC(C)(C)NC(=O)c1cccc(NC(=O)c2ccco2)c1,inactive: 101%
20,Cc1c(C(=O)N2CCCC2)oc2c1-c1nn(CC(=O)NCc3ccc(OC(C)C)cc3)cc1CC2,inactive: 84%
21,CCc1cccc(NC(=O)c2cnc(N3CCOCC3)c3ccccc23)c1,inactive: 67%
22,CN(CC(=O)Nc1ccc(OC(F)(F)F)cc1)S(=O)(=O)c1ccc2c(c1)CCC(=O)N2,inactive: 126%
23,Cc1ccc(CSc2nc(N)cc(N)n2)cc1,inactive: 114%

row,Structure (SMILES),survival
1,Cc1ccc2occ(-c3cc(-c4ccccc4)nc4c3COc3ccccc3-4)c(=O)c2c1,inactive: 73%
2,Cc1ccc(-n2c(=O)c3c(C)c(C(=O)N(C)C)sc3n(CC(=O)N(C)c3ccccc3)c2=O)cc1C,inactive: 69%
3,Cc1ccc(C)c(NC(=O)CSc2nc3nccnc3c(=O)n2CCc2c[nH]c3ccccc23)c1,active: 37%
4,COc1ccc(N2CC(C(=O)NCCS(=O)(=O)N3CCN(c4ccccc4)CC3)CC2=O)cc1 (stereo not given),inactive: 75%
5,C/C(O)=C\c1sc2ccccc2[n+]1C,inactive: 91%
6,COc1ccc(S(=O)(=O)N2CCC(Oc3cccc(C(F)(F)F)c3)CC2)cc1OC,inactive: 73%
7,CC(C)OCCCNC(=O)c1cn(C)c2ccc(S(=O)(=O)N(C)C3CCCCC3)cc2c1=O,inactive: 93%
8,CC(=O)c1ccc(N2CCN(C(=O)Nc3ccc(C)cc3)CC2)cc1,inactive: 125%
9,COc1cc(C(=O)Nc2ccc3nc4n(c(=O)c3c2)CCCCC4)cc(OC)c1OC,inactive: 88%
10,Cc1ccc(Nc2c(-c3ccc(N4CCOCC4)cc3)nc3ccc(C)cn23)cc1,inactive: 95%
11,COc1ccc(NC(=O)CSc2nnc(N)s2)cc1,inactive: 82%
12,Cn1c(=O)oc2cc(S(=O)(=O)NC(CC(=O)O)c3cccc(Br)c3)ccc21 (stereo not given),inactive: 67%
13,CCc1cccc(C)c1NC(=O)CN1CCN(Cc2ccccc2Cl)S1(=O)=O,inactive: 126%
14,CCc1ccc(NC(=O)Cn2c(=O)c3cccn3c3ccccc32)cc1,inactive: 56%
15,CCC1(C)N=c2c(c(=O)n(C)c(=O)n2C)=NO1 (stereo not given),inactive: 99%
16,CCN(CC)S(=O)(=O)c1ccc2c(c1)N(CC(=O)N1CCN(c3cccc(C)c3)C(C)C1)C(=O)CO2 (stereo not given),inactive: 78%
17,CCN(C(=O)CSc1nc2ccccc2c2nc(CCn3c(C)nc4ccccc43)nn12)c1cccc(C)c1,inactive: 80%
18,COc1ccc(-c2csc3nc(-c4ccc(Cl)cc4)oc(=O)c23)cc1,inactive: 91%
19,Cc1cccc(NC(=O)CCn2cnnn2)c1,inactive: 79%
20,CC(=O)c1ccc(Oc2ncnc3c2oc2ccccc23)cc1,inactive: 118%
21,O=C(COc1ccc2oc3c(c2c1)CCCC3)Nc1ccccn1,inactive: 85%
